# Source: PubChem BioAssay (Tox21)
# “And” between values parts separate entries of the source, which are not always exact repeats. Equal values may be shown once. Inconclusive means that the source gave no clear call. Such entries were picked first, then a sample of the others. For some of these results: Potencies of inconclusive entries are doubtful fits and often do not repeat. A structure can be active in one record and inactive in another. The source made the active and inactive calls. Unless noted, calls follow the shape of the dose curve; as a rule, active = well fitted curve in the direction sought with a large enough effect in the repeat runs; inconclusive = weak or mixed curves; inactive = no such curve, though single readings can be large; an effect the other way counts as inactive or inconclusive.
# Legend:
# [1] = qHTS assay to identify small molecule agonists of the estrogen receptor beta (ER-beta) signaling pathway - cell viability counter screen (AID 1259380); also: nearly all actives have a fitted effect of over 30% in size; also: potency is read from the fitted curve at half-maximal effect
# Method in brief: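 Viability of ER-beta-UAS-bla HEK293T cells was determined by CellTiter-Glo luminescence following 16 hr treatment with test compounds at 37C.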
# [2] = qHTS assay to identify small molecule antagonists of the estrogen receptor beta (ER-beta) signaling pathway - cell viability counter screen (AID 1259382); also: potency is read from the fitted curve at half-maximal effect; nearly all actives have a fitted effect of over 55% in size
# Method in brief: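 Tox21 10K library tested in qHTS format on ER-beta-bla HEK293T cells stimulated with 1nM E2; 16 hr treatment at 37C. Same-well CellTiter-Glo luminescence served as the cell viability measure.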
# [3] = qHTS assay to identify small molecule agonists of the estrogen receptor alpha (ER-alpha) signaling pathway in the presence of an antagonist - cell viability counter screen (AID 1259386);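 also: cells exposed to compounds for 22 h at 37 °C before the viability read; nearly all actives have a fitted effect of over 30% in size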; also: potency is read from the fitted curve at half-maximal effect
# Method in brief: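 Fluorescent CellTiter-Fluor viability signal from VM7Luc4E2 cells, with the reagent added during the final hour of a 22hr compound exposure at 37C in the presence of 10.0nM ICI-182,780.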
# [4] = qHTS assay to identify small molecule agonists of the progesterone receptor (PR) signaling pathway - cell viability counter screen (AID 1346799; calls by dose curve; also: potency is read from the fitted curve at half-maximal effect; nearly all actives have a fitted effect of over 45% in size)
# Method in brief: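 PR-UAS-bla HEK293T cells, 3,000 per well in medium with 2% charcoal-stripped FBS, were preincubated 6 hr at 37C, then exposed to compounds for 16 hr; viability was read as CellTiter-Glo luminescence after 30 min at room temperature.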
# [5] = Caspase-3/7 induction in CHO-K1 cells by small molecules, qHTS cell viability counter screen (AID 1346979); also: potency is read from the fitted curve at half-maximal effect; nearly all actives have a fitted effect of over 35% in size
# Method in brief: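 Wild-type CHO-K1 cells were seeded at 1,500 per well, rested 5hr at 37 C, then exposed to compounds in DMSO. After 16hr, CellTiter-Fluor reagent was added and fluorescence read 1hr later as the viability measure.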
# [6] = biological target: Progesterone receptor (Homo sapiens) (UniProt P06401); assay: qHTS assay to identify small molecule agonists of the progesterone receptor (PR) signaling pathway (AID 1346784; calls by dose curve; also: nearly all actives have a fitted effect of over 30% in size; also: potency is read from the fitted curve at half-maximal effect; as to activation: % is scaled to controls: 0 for no effect and ±100 for the full control effect); conditions: PR-UAS-bla HEK293T, beta-lactamase FRET ratio, 16 h; activation: at 92.4 µM (top of the series) unless noted
# Method in brief: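 PR-UAS-bla HEK 293T cells carrying a UAS-driven beta-lactamase reporter were seeded in medium with 2% charcoal-stripped FBS, preincubated 6 hr at 37C, then exposed to compounds in DMSO for 16 hr; agonism was read by LiveBLAzer B/G FRET fluorescence.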
# [7] = biological target: Progesterone receptor (Homo sapiens) (UniProt P06401); assay: qHTS assay to identify small molecule antagonists of the progesterone receptor (PR) signaling pathway (AID 1346795; active = well fitted inhibition curve with a large enough effect in the signal ratio in the repeat runs, not every such curve was filed as active; inconclusive = weak or mixed curves; the % refers to the signal ratio; also: potency is read from the fitted curve at half-maximal effect; as to activity change, negative = inhibition: % is scaled to controls: 0 for no effect and ±100 for the full control effect); conditions: PR-UAS-bla HEK293T, beta-lactamase FRET ratio, 16 h; activity change, negative = inhibition: at 92.4 µM (top of the series) unless noted
# Method in brief: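 PR-UAS-bla HEK293T cells carrying a UAS-driven beta-lactamase reporter were plated in medium with 2% charcoal-stripped FBS and rested 6 hr at 37C. Compounds were added with 1 nM R5020 (final) for 16 hr, then FRET substrate loaded 2 hr at room temperature.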
# [8] = qHTS assay to identify small molecule antagonists of the progesterone receptor (PR) signaling pathway - cell viability counter screen (AID 1346798); also: potency is read from the fitted curve at half-maximal effect; nearly all actives have a fitted effect of over 50% in size
# Method in brief: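 PR-UAS-bla HEK293T cells in medium with 2% charcoal-stripped FBS were treated with compounds plus R5020 for 16 hr at 37C. Cell viability was then read by CellTiter-Glo luminescence after 30 min at room temperature in the same wells.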
# [9] = qHTS assay to identify small molecule agonists of the TGF-beta/Smad signaling pathway (AID 1346859; active = well fitted activation curve with a large enough effect in the signal ratio in the repeat runs, not every such curve was filed as active; inconclusive = weak or mixed curves; the % refers to the signal ratio; also: potency is read from the fitted curve at half-maximal effect); conditions: SBE-bla HEK293T, TGF-beta/Smad beta-lactamase reporter, 5 h; activation: at 76.8 µM (top of the series)
# Method in brief: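 HEK 293T cells stably carrying a beta-lactamase reporter driven by the Smad binding element were seeded overnight, exposed to DMSO-dissolved compounds for 5 hr at 37 C, 5% CO2, then loaded with FRET substrate for 2 hr at room temperature.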
# [10] = qHTS assay to identify small molecule antagonists of the TGF-beta/Smad signaling pathway (AID 1346924; active = well fitted inhibition curve with a large enough effect in the signal ratio in the repeat runs, not every such curve was filed as active; inconclusive = weak or mixed curves; the % refers to the signal ratio); conditions: SBE-bla HEK293T, TGF-beta/Smad reporter, beta-lactamase ratio
# Method in brief: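 SBE-bla HEK 293T cells were plated overnight, then received compound in DMSO plus TGF-beta1 (added as a 0.25 ng/mL solution) and were incubated 5 h at 37 C. Beta-lactamase reporter activity was read after 2 h at room temperature with LiveBLAzer B/G FRET substrate (ex 405, em 460/530 nm).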
# [11] = Human pregnane X receptor (PXR) small molecule agonists, qHTS cell viability counter screen (AID 1346977); also: potency is read from the fitted curve at half-maximal effect; nearly all actives have a fitted effect of over 50% in size
# Method in brief: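 PXR-Luc HepG2 cells in medium with 5% charcoal-stripped FBS were pre-incubated 5hr, then exposed to compounds for 24hr at 37C. Viability was read in the same wells by CellTiter-Fluor fluorescence, reagent added after 23hr with a 1hr incubation.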
# [12] = Caspase-3/7 induction in HepG2 cells by small molecules, qHTS assay (AID 1346978); also: potency is read from the fitted curve at half-maximal effect; nearly all actives have a fitted effect of over 15% in size
# Method in brief: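 Caspase-3/7 induction was measured by Caspase-Glo 3/7 luminescence (30 min, room temperature) after a 17 hr compound exposure of wild-type HepG2 cells seeded at 2,000 per well and pre-incubated 5 hr.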
# [13] = Caspase-3/7 induction in CHO-K1 cells by small molecules, qHTS assay (AID 1346980); also: potency is read from the fitted curve at half-maximal effect; nearly all actives have a fitted effect of over 15% in size
# Method in brief: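 Luminescent Caspase-Glo 3/7 read (30min, room temperature) quantified apoptosis induction. Cells were wild-type CHO-K1, treated with compound for 17hr at 37 C and 5% CO2.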
# [14] = biological target: Thyrotropin-releasing hormone receptor (Homo sapiens) (UniProt P34981); assay: qHTS assay to identify small molecule antagonists of the thyrotropin-releasing hormone receptor (TRHR) signaling pathway (AID 1346877; active = well fitted inhibition curve with a large enough effect in the repeat runs, not every such curve was filed as active; inconclusive = weak or mixed curves; also: potency is read from the fitted curve at half-maximal effect)
# Method in brief: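 In this cell-based calcium flux format, HEK293 cells expressing TRHR received test compound for 5 min before the agonist TRH (1 nM final). Dye loading lasted 2 h at 37 °C.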
# [15] = biological target: Thyrotropin-releasing hormone receptor (Homo sapiens) (UniProt P34981); assay: qHTS assay to identify small molecule agonists of the thyrotropin-releasing hormone receptor (TRHR) signaling pathway (AID 1346891; calls by dose curve; also: potency is read from the fitted curve at half-maximal effect)
# Method in brief: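 TRHR-expressing HEK293 cells were plated 18 h at 37 °C/5% CO2, loaded with calcium dye 2 h at 37 °C, then given compound in DMSO; fluorescence was read kinetically for 3 min at 1 s intervals.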
# [16] = qHTS assay to identify small molecule antagonists of the TGF-beta/Smad signaling pathway - cell viability counter screen (AID 1346824); also: potency is read from the fitted curve at half-maximal effect; nearly all actives have a fitted effect of over 50% in size
# Method in brief: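 Cytotoxicity counter-screen run in the same wells as the beta-lactamase Smad reporter read: CellTiter-Glo luminescence after 30 min at room temperature. HEK 293T SBE-bla cells had 5 hr compound exposure at 37 C with TGF-beta1 (0.25 ng/mL stock).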
# [17] = qHTS assay to identify small molecule agonists of the TGF-beta/Smad signaling pathway - cell viability counter screen (AID 1346829); also: potency is read from the fitted curve at half-maximal effect; nearly all actives have a fitted effect of over 45% in size
# Method in brief: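 SBE-bla HEK 293T cells plated overnight, compound exposure 5 hr at 37 C. Viability read in the same wells by CellTiter-Glo luminescence after 30 min at room temperature, following the beta-lactamase read.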
# Tags tell the direction and shape of the fitted curve or compound fluorescence and quenching.
# UniProt P34981, sequence (P34981 whole entry, looked up): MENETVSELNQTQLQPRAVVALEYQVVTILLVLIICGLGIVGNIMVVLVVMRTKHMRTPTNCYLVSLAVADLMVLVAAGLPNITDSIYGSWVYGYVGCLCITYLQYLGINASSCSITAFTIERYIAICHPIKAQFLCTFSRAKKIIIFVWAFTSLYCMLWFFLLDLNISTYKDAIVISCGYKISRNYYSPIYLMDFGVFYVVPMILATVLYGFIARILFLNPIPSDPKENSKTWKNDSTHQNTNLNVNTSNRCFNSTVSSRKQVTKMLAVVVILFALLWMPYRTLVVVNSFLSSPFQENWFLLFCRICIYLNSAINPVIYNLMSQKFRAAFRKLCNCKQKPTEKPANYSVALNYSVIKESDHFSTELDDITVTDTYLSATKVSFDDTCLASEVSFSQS
# UniProt P06401, sequence (P06401 whole entry, looked up): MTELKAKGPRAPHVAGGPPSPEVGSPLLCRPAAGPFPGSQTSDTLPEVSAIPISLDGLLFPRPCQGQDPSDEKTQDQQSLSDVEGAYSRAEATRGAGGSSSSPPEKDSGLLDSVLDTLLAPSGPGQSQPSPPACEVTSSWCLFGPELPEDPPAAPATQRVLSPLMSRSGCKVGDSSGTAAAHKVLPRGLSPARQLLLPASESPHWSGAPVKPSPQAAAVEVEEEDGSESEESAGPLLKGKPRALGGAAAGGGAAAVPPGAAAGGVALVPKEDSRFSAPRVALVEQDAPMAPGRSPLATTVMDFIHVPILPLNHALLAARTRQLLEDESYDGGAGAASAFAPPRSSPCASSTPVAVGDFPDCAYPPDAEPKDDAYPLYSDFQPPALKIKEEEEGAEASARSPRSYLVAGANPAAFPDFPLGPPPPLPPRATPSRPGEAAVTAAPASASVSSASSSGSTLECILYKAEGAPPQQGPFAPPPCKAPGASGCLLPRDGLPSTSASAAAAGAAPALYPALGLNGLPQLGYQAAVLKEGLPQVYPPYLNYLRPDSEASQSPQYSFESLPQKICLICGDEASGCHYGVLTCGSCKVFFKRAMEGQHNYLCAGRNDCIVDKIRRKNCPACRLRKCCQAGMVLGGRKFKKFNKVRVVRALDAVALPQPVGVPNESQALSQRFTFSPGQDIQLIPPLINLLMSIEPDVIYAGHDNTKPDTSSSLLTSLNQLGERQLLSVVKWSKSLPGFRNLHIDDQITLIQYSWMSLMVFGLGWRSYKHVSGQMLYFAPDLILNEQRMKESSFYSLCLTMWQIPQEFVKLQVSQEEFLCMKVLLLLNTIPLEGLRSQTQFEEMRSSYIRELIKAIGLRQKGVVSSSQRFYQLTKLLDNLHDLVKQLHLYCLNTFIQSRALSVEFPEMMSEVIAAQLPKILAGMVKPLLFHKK
compound,measurement,setting,value
O=[N+]([O-])c1ccc(Nc2ccccc2)cc1,Potency,[1],"inconclusive: 69.1 µM [cytotoxic, single point]"
same,Potency,[2],inconclusive: 69.1 µM [cytotoxic]
same,Potency,[3],active: 27.5 µM and active: 27.3 µM
same,Potency,[4],"inconclusive: 7.75 µM [rising, partial curve] and inconclusive: 19.3 µM [rising, partial curve]"
same,Potency,[5],active: 48.9 µM and active: 48.6 µM
CCOC(=O)C(O)(c1ccc(Cl)cc1)c1ccc(Cl)cc1,Potency,[1],"inconclusive: 69.3 µM [cytotoxic] and inconclusive: 77 µM [cytotoxic, single point]"
same,Potency,[2],"inconclusive: 68.6 µM [cytotoxic, single point]"
same,Potency,[3],inactive
same,Potency,[6],"inconclusive: 0.0969 µM [falling, full curve, poor fit]"
same,Potency,[7],active: 13.8 µM and active: 13.7 µM
same,Potency,[8],"inconclusive: 77 µM [cytotoxic, single point]"
same,Potency,[9],"inconclusive: 55.5 µM [rising, single point]"
same,"activity, negative = inhibition","[10]; activity, negative = inhibition: at 76.8 µM (top of the series) unless noted",inconclusive: -20.8% and inconclusive: -5.57%
same,Potency,[11],"inconclusive: 70.8 µM [cytotoxic, single point] and inconclusive: 68.6 µM [cytotoxic, single point]"
same,Potency,[12],"inconclusive: 69.3 µM [activator, single point] and inconclusive: 68.6 µM [activator, single point]"
same,Potency,[5],"inconclusive: 68.6 µM [cytotoxic, single point]"
same,Potency,[13],"inconclusive: 61.8 µM [activator, partial curve] and inconclusive: 68.6 µM [activator, partial curve, poor fit]"
CN(C)C(=S)S,Potency,[1],active: 5.56 µM and active: 1.21 µM and active: 12.2 µM
same,Potency,[2],"inconclusive: 3.04 µM [cytotoxic, full curve] and inconclusive: 13.7 µM [cytotoxic, full curve]"
same,Potency,[3],"inconclusive: 7 µM [cytotoxic, full curve]"
same,Potency,[8],"active: 15.7 µM and inconclusive: 34.1 µM [cytotoxic, single point] and active: 17.2 µM"
same,Potency,[4],"inconclusive: 19.7 µM [cytotoxic, partial curve] and active: 13.7 µM"
same,"activity, negative = inhibition",[10]; at 35.3 µM (top of the series),inconclusive: -0.322%
same,"activity, negative = inhibition",[10]; at 76.8 µM (top of the series),inconclusive: -16.3% and inconclusive: 0.839%
CC(C)(c1cc(Cl)c(O)c(Cl)c1)c1cc(Cl)c(O)c(Cl)c1,Potency,[1],"inactive and inconclusive: 30.6 µM [cytotoxic, partial curve]"
same,Potency,[2],"inconclusive: 61.1 µM [cytotoxic, single point]"
same,activation,[6],inconclusive: -8.62%
same,Potency,[4],"inconclusive: 611 nM [cytotoxic, single point]"
same,Potency,[14],"inconclusive: 30.2 µM [inhibitor, partial curve] and active: 30.1 µM"
same,Potency,[15],"inconclusive: 38.9 µM [activator, single point] and active: 34.7 µM"
ClC1C(Cl)C(Cl)C(Cl)C(Cl)C1Cl (stereo unspecified),Potency,[1],"inconclusive: 69.2 µM [cytotoxic] and inconclusive: 70 µM [cytotoxic, single point]"
same,Potency,[2],"inconclusive: 68.6 µM [cytotoxic, single point]"
same,Potency,[16],"inconclusive: 19.5 µM [cytotoxic, partial curve]"
same,Potency,[17],"inconclusive: 27.3 µM [cytotoxic, partial curve, poor fit] and inconclusive: 49 µM [cytotoxic, partial curve]"
same,Potency,[9],"inconclusive: 62.2 µM [rising, partial curve, poor fit] and inconclusive: 62.9 µM [rising, partial curve, poor fit] and inconclusive: 54.9 µM [rising, partial curve, poor fit]"
same,Potency,[11],"inconclusive: 61.1 µM [cytotoxic, single point]"
c1cc(OCC2CO2)ccc1Cc1ccc(OCC2CO2)cc1 (stereo unspecified),Potency,[1],"inconclusive: 27.4 µM [cytotoxic, single point]"
same,Potency,[2],active: 48.8 µM
same,"activity change, negative = inhibition",[7],inconclusive: -33.2% and inconclusive: -54.2%
same,Potency,[8],"inconclusive: 68.9 µM [rising, single point] and inconclusive: 68.6 µM [rising, single point]"
same,Potency,[11],"inconclusive: 70.8 µM [cytotoxic, single point] and inconclusive: 68.6 µM [cytotoxic, single point]"
same,Potency,[5],"inconclusive: 68.9 µM [cytotoxic, single point] and inconclusive: 68.6 µM [cytotoxic, single point]"
CCCCCCCCCCCCBr,Potency,[1],active: 43.3 µM
same,Potency,[2],"inconclusive: 24.3 µM [cytotoxic, partial curve]"
same,Potency,[7],"inconclusive: 17.2 µM [rising, full curve]"
same,Potency,[4],"inconclusive: 15400 nM [cytotoxic, full curve, poor fit]"
